In all, about 110,000 compounds were measured (“z-score”: median about -0.1, highest 2% from about 2 on). Some of the results follow. Activity calls are given as the source filed them.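 The calls were made as follows: active = z-score in the third read window above 3 or below -3; inactive = the rest.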

The assay concerns the target Metabotropic glutamate receptor 8 (Rattus norvegicus) (UniProt P70579). The assay is described as follows: rat mGluR8 modulators via GIRK flux, primary screen, cell-based, thallium flux, HTS (AID 488969). The conditions noted are these: HEK293 rat mGluR8, GIRK (G protein-gated inwardly rectifying potassium channel) thallium flux, FluoZin2; at 10 µM; stronger effect = higher value; submaximal glutamate (EC20) added with thallium.
Sequence of UniProt P70579 (P70579 whole entry, looked up): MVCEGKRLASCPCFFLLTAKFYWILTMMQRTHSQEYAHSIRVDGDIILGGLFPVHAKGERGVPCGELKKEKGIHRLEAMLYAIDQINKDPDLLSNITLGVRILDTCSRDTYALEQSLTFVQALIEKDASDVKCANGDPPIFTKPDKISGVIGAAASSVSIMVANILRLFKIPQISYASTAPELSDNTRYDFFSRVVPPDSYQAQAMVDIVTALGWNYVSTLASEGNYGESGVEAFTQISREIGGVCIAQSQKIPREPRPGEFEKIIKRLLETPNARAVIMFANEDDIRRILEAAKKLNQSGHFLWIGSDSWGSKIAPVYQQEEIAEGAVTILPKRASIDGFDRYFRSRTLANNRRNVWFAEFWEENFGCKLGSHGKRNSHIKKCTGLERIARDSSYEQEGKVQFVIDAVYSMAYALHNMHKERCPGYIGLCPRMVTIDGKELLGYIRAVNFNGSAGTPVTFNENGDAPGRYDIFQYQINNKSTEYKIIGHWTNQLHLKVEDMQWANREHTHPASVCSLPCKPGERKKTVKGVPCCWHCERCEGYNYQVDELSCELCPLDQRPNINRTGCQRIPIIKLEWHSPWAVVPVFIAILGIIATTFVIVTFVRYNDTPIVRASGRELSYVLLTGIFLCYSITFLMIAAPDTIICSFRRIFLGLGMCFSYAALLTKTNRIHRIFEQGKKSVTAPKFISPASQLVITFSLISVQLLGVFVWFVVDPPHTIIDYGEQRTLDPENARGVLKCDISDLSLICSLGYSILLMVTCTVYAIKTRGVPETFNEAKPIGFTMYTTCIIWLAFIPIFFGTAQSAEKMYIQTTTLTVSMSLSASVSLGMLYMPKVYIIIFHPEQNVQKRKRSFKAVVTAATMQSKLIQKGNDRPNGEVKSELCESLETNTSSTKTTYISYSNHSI
Molecule `CC(C)(C)C(=O)NCCN1C(=O)S/C(=C\c2ccc([N+](=O)[O-])cc2)C1=O` yielded a z-score of -0.862.
The same measure for `O=C(Cc1ccccc1[N+](=O)[O-])N1CCN(c2ccccc2F)CC1`: 0.343.
The same measure for `COc1ccc(Cl)c(Cn2c(NCC(C)O)nc3c2c(=O)n(C)c(=O)n3C)c1` (stereo unspecified): -0.64.
The same measure for `Cc1ccc(NC(=O)CN(C)C(=O)Cn2cc(C(F)(F)F)ccc2=O)cc1`: 0.152.
Molecule `O=C(CCSCc1ccc(Cl)cc1)NCCC1=CCCCC1` showed a z-score of -0.242.
The same measure for `COc1cc(C2C(C#N)=C(N)OC3=C2C(=O)CC(C)(C)C3)c([N+](=O)[O-])cc1OC` (stereo unspecified): -0.0845; for `CCC(=O)NC(Nc1sc2c(c1C(=O)OC)CCCC2)(C(F)(F)F)C(F)(F)F`: -0.426; for `Cc1cc(C)c(C)c(OCC(=O)NCCN(C)C)c1`: 0.432.
The same measure for `O=C(COc1ccc2ccccc2c1)NNC(=O)Cc1cccc2ccccc12`: -0.78; for `Cc1occc1C(=O)NCCCCNC(=O)c1ccoc1C`: 0.415.
The value for `Cc1sc(NC(=O)c2ccc(Cl)s2)c(C(N)=O)c1C` was 0.0498; that for `Cc1ccc(C(=O)/C=C/Nc2ccccc2C(N)=O)o1` was -0.477; that for `CCC(C)Sc1nnc(-c2c[nH]c3ccccc23)n1CCOC` (stereo unspecified) was -0.152.
Turning to `CC(C)Cc1nc(SCC(=O)Nc2ccc(S(N)(=O)=O)cc2)n[nH]1`, the z-score was -0.0964.
The same measure for `Cc1cc(N)n(-c2ncnc3scc(-c4ccc(Cl)cc4)c23)n1`: 0.703; for `Cc1ccc(C(=O)n2c(-c3ccccc3)cnc2SCC(=O)Nc2ccc(C)cc2C)cc1`: -0.0916; for `O=C(/C=C/c1cccnc1)c1ccc(NC(=O)c2cccc(Br)c2)cc1`: -0.00474.
The same measure for `Cc1ccc2nc(NC(=O)CN(C)S(=O)(=O)c3ccc(Br)s3)sc2c1`: -0.381; for `CC(=O)Nc1ccc(S(=O)(=O)n2cnc(C)c2)cc1`: 0.302; for `C/C(Cl)=C\Cn1c(=O)c2c(nc3n2CCS3)n(C)c1=O`: 0.117.
In turn, `Cc1ccc(NC(=O)CCn2cccc2)cc1C` returned a z-score of -0.0298.
Molecule `COc1cc(/C=N/Nc2ncnc3sc4c(c23)CCC4)ccc1O` came in with a z-score of -1.15.
The same measure for `O=C(NCCN1CCOCC1)c1cn(-c2ccccc2)nc1-c1cccs1`: 1.31; for `Cc1ccc(CNC(=O)C2c3ccccc3C(=O)N3CCc4ccccc4C23)o1` (stereo unspecified): -0.749.
The same measure for `CCC(C)c1ccc(OCCCCN2CCOCC2)cc1` (stereo unspecified): 0.469; for `CN(C)Cc1c(O)c(Cl)cc2c3c(c(=O)oc12)CCCC3`: active: -5.65.
The value for `CNC(=S)NNC(=O)c1sccc1OCc1ccc(Cl)cc1Cl` was -0.78.
For `Cc1cccc(NC(=O)C2(c3ccccc3)CC2(Cl)Cl)c1` (stereo unspecified), the z-score is -0.231.
The same measure for `O=C(COc1cccc(NC(=O)c2cccc([N+](=O)[O-])c2)c1)c1ccc(F)cc1`: 0.0439; for `Cn1c(C(=O)N2CCCC(C(=O)NCc3ccc4c(c3)OCO4)C2)cc2sccc21` (stereo unspecified): -1.36; for `Cc1cc(C)cc(NC(=O)C(OC(=O)c2cccs2)c2ccccc2)c1` (stereo unspecified): -0.336.
Regarding `N#Cc1c(C(F)(F)F)cc(C2CC2)nc1N1CCCC1`, the z-score is -0.113.
The same measure for `CCn1c2ccc(C)cc2c2nc3cc(C(=O)O)ccc3nc21`: -0.21.
The value for `O=C(c1ccc(-c2nnc(Nc3cccc(Cl)c3)c3ccccc23)cc1)N1C[C@H]2C[C@H](C1)c1cccc(=O)n1C2` was 0.0269; that for `Cc1ccc([N+](=O)[O-])cc1N=C(c1cccc([N+](=O)[O-])c1)N1CCOCC1` was -0.0936.
The value for `O=C(CN1CCN(c2ccccn2)CC1)Nc1cc(C(F)(F)F)ccc1Cl` was -1.18.
`CC(=O)NC(Cc1c[nH]c2ccccc12)C(=O)N1CCc2ccccc2C1` (stereo unspecified) displayed a z-score of 0.156.
In the case of `COCCNC(=O)c1ccc(CS(=O)(=O)c2ccc(Cl)cc2)o1`, the z-score amounted to 0.388.
As to `Oc1ccc(-c2cn3cc(C(F)(F)F)ccc3n2)cc1`, the z-score was 0.221.
The same measure for `CCN(CC)c1cc(C(F)(F)F)nc(-c2ccccn2)n1`: -0.321.
The value for `Cc1ccc(S(=O)(=O)N/N=C/c2cccc3c2OCCO3)cc1` was -0.232; that for `FC(F)(F)c1ccc(Oc2ccc3c(C(F)(F)F)cc(C(F)(F)F)nc3n2)cc1` was -0.106; that for `O=C(CSc1nnc(Cc2ccccc2)n1-c1ccccc1)N1CCOCC1` was -0.213.
The same measure for `CC(CN1CCOCC1)OC(=O)c1ccc(Br)cc1` (stereo unspecified): -0.258; for `COC(=O)c1ccc(C(=O)OC)c(NC(=O)CSc2ccccn2)c1`: -0.644; for `Cc1nc(C)c2c(=O)cc(-c3ccccc3)[nH]c2n1`: -0.301.
On to `S=C(Nc1ccccc1)c1nc2ccccc2s1`, for which the z-score was 2.64.
The same measure for `Cc1nnc(SCC(=O)N2CCC(C(N)=O)CC2)s1`: -0.513; for `O=C(C1CCN(S(=O)(=O)N2CCOCC2)CC1)N1CCN(Cc2ccccc2)CC1`: -0.0538; for `COc1ccc2[nH]c(C)c(CCN3C(=O)OC(C)(C)C3(C)O)c2c1` (stereo unspecified): -0.00966.
Turning to `Cc1nn(C)c(C)c1S(=O)(=O)N1CCC(C(=O)Nc2ccc3c(c2)OCCO3)CC1`, the z-score was found to be 0.0886.
The value for `COCCn1c(SCCN2CCOCC2)nc2c1c(=O)[nH]c(=O)n2C` was -0.528; that for `Cc1[nH]nc(SCC(=O)NCc2ccc(Cl)cc2)c1[N+](=O)[O-]` was -0.12; that for `COc1ccc(Oc2ncnc3c2ncn3Cc2ccccc2)cc1` was -0.262.
The same measure for `CCOc1cc(NC(=S)NCC(C)C)c(OCC)cc1NC(=O)c1ccco1`: -0.188; for `O=C(NCC1CCCO1)c1ccccc1` (stereo unspecified): -0.11; for `O=C(O)CSCc1cnn(-c2ccccc2)c1-n1cccc1`: 0.0139.
The molecule `COC(=O)C(Cc1c[nH]c2ccccc12)NC(C)=O` (stereo unspecified) yielded a z-score of -0.043.
The same measure for `O=C(C[n+]1cc(-c2ccccc2)n2c1CCC2)OCc1ccccc1`: active: 5.17; for `N#CC(c1ccc(O)cc1)N1CCCCC1` (stereo unspecified): -0.281.
The same measure for `COc1ccc(NS(=O)(=O)c2ccc3nc(COc4ccc(C#N)cc4)[nH]c3c2)cc1`: -0.0242.
On to `COc1ccc(S(=O)(=O)O/N=C2\CCCc3ccccc32)cc1`, for which the z-score amounted to 0.0274.
The same measure for `COc1ccc2c(c1)c1ncn(CCCN3CCOCC3)c(=O)c1n2C`: 0.00301.
For the molecule `Cc1ccc(N/C=C/C(=O)c2ccc(C)cc2)cc1`, the z-score came out at 0.877.
`Cc1ccc(NC(=O)C2CC(=O)n3c(nc4ccccc43)N2)cc1` (stereo unspecified) came in with a z-score of -0.152.
The value for `Cc1cccc(-n2nc(C)cc2N)c1` was -0.0369; that for `COc1cc(-c2nnc(SCC(=O)N(Cc3ccccc3)C(C)(C)C)o2)cc(OC)c1OC` was -1.34.
Take `CCOC(=O)N1CCN(Cc2c(F)cccc2F)CC1`: the z-score was -0.0243.
The value for `COC(=O)c1ccccc1NC(=O)Cn1cnc2c(cnn2-c2ccccc2)c1=O` was -0.383; that for `COC(=O)c1ccc(COC(=O)c2ccc(CO)cc2)o1` was -0.263; that for `Cc1ccc2nc3ccc(N4CCN(C)CC4)nn3c(=O)c2c1` was 0.0225.
Consider `COc1ccc(NC(=O)COc2ccccc2)c(OC)c1`, for which the z-score is -0.33.
For the molecule `COc1cccc(/C=C/C(=C2/C(=O)N(c3ccccc3)N=C2C)c2ccc(Br)cc2)c1OC`, the z-score is -0.131.
The same measure for `c1ccc2oc(NC3=NCN(CC4CCCO4)CN3)nc2c1` (stereo unspecified): 0.309.
For `Cc1c(NC(=O)C(C)OC(=O)c2cc3c4ccccc4n(C)c3s2)c(=O)n(-c2ccccc2)n1C` (stereo unspecified), the z-score is -0.0764.
For the molecule `CC(Sc1nnc2ccccn12)C(=O)Nc1ccc(Cl)cn1` (stereo unspecified), the z-score is -0.0922.
The value for `Cc1ccccc1-c1nc(CS(=O)(=O)CC(=O)NCc2ccc3c(c2)OCO3)c(C)o1` was 0.146; that for `Cc1nc2ccccc2c(=O)n1CCCn1ccnc1` was -0.0141.
Take `CCOC(=O)C1=C(C(F)(F)F)Nc2ncnn2C1c1ccc(OC)cc1OC` (stereo unspecified): the z-score was -0.139.
Molecule `Cc1ccc2[nH]c(=O)c(-c3noc(-c4ccncc4)n3)cc2c1` returned a z-score of 0.141.
With `CCN1C(=O)/C(=C2\C=Cc3cc(C)ccc3N2CC)OC1=S`, the z-score is -0.144.
The value for `O=C(Nc1nnc(C(F)(F)F)s1)c1cccnc1` was 0.616; that for `CC(=O)c1sc(NC(=O)c2ccco2)nc1-c1ccccc1` was 0.0282.
As to `COC(=O)CSc1nnc(-c2ccc(S(=O)(=O)N3CCCC3)cc2)n1C`, the z-score is -0.234.
The value for `O=C1c2ccccc2C(=O)N1CSc1nnnn1-c1ccccc1` was -0.207; that for `O=C(Nc1ccccc1)c1ccc(CN2CCC(Cc3ccccc3)CC2)cc1` was 0.0784.
The same measure for `Cc1nnc(NC(=O)CSc2nnc(C)n2Cc2ccccc2)s1`: -0.0456; for `CCCOc1ccc(N2C(=O)CC(N3CCN(S(=O)(=O)c4ccccc4)CC3)C2=O)cc1` (stereo unspecified): -0.232; for `CCn1c(C)[n+](CC(O)COCC2CC=CCC2)c2ccccc21` (stereo unspecified): -0.33.
The value for `COC(=O)C1=C(C)N=C2SCCC(=O)N2C1c1ccc(C(=O)OC)cc1` (stereo unspecified) was 0.676.
On to `Cc1c(Cl)cccc1NC(=O)CNc1cccc(C(F)(F)F)c1`, for which the z-score is -0.119.
The value for `O=C(COC(=O)CCCNC(=O)c1ccc(Cl)cc1)NCc1ccccc1Cl` was -0.0748.
The same measure for `CCSc1nnc(NC(=O)c2csc3c2CCC(C)C3)s1` (stereo unspecified): -0.0907; for `Cn1cccc1C(=O)NC(=O)COC(=O)C12CC3CC(CC(O)(C3)C1)C2`: -0.235; for `O=S(=O)(NC1CCCCC1)c1ccc(Cl)nc1`: -0.0261.
The value for `O=c1cc(NS(=O)(=O)c2ccccc2)nc(SCc2c(Cl)cccc2Cl)[nH]1` was 0.879; that for `COC(=O)C1=C(C(=O)OC)C2(OC1c1ccc(Br)cc1)C(=O)c1ccccc1C2=O` (stereo unspecified) was 0.00915.
Molecule `CC(C)C(NC(=O)c1cccs1)C(=O)NC1=NCCS1` (stereo unspecified) came in with a z-score of 0.0706.
The same measure for `O=C(CCS(=O)(=O)c1cccc2nsnc12)NCc1ccccc1Cl`: 0.429.
The same measure for `COc1ccc(/C=N/NC(=O)CC(=O)NCc2cccnc2)c(OC)c1`: -0.0683.
The value for `CC1(C)CC(NC(=O)CCc2ccccc2)CC(C)(C)N1` was -0.159; that for `COc1ccc(CN2CCCC(C(=O)N3CCCC3)C2)cc1` (stereo unspecified) was -0.0501.
In turn, `Cc1ccc(CNC(=O)CNS(=O)(=O)c2cccc3nsnc23)cc1` registered a z-score of 1.61.
The same measure for `Cc1ccc(C(=O)Nc2ccccc2-c2ccccc2)cc1S(=O)(=O)Nc1cccc(C)c1C`: -0.221.
The value for `O=S(=O)(CCSc1nc2ccccc2s1)c1nc2ccccc2s1` was 0.185; that for `CC(=O)Nc1nc2ccc(-c3nc4ccccc4o3)cc2s1` was 2.69.
The value for `Cc1ccc(NC(=O)c2cccc(N3C(=O)C4C5CCC(C5)C4C3=O)c2)c(C)c1` (stereo unspecified) was -0.392.
In turn, `CCOc1ccc(C(=O)COC(=O)CC)cc1` returned a z-score of -0.159.
The same measure for `COC(=O)N/N=C(\C)c1ccc(OC(F)F)cc1OC(F)F`: -0.297; for `CC(C)CCOC(=O)C1C2C=CC3(CN(Cc4cccs4)C(=O)C13)O2` (stereo unspecified): 0.285; for `CSc1nc(C)c2c(n1)N(c1ccc(C(C)C)cc1)CC2`: 0.43.

Values taken from PubChem BioAssay AID488969 (Vanderbilt High Throughput Screening Facility, 2010).
